Source: paper PMC4336329 (PLoS ONE, 2015)
About 14,000 (4.5%) of roughly 310,000 compounds showed an effect of 50% or more. The effect is printed as a negative number. This is one part of the list.

What follows are compounds tested against human ether-à-go-go-related gene (hERG) potassium channel (human, UniProt Q12809) (assay: primary screen, population patch clamp on CHO cells stably expressing hERG).
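Also: peak tail current of the secondary pulse compared with the same well before compound.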

human ether-à-go-go-related gene (hERG) potassium channel, sequence (Q12809 whole entry, looked up): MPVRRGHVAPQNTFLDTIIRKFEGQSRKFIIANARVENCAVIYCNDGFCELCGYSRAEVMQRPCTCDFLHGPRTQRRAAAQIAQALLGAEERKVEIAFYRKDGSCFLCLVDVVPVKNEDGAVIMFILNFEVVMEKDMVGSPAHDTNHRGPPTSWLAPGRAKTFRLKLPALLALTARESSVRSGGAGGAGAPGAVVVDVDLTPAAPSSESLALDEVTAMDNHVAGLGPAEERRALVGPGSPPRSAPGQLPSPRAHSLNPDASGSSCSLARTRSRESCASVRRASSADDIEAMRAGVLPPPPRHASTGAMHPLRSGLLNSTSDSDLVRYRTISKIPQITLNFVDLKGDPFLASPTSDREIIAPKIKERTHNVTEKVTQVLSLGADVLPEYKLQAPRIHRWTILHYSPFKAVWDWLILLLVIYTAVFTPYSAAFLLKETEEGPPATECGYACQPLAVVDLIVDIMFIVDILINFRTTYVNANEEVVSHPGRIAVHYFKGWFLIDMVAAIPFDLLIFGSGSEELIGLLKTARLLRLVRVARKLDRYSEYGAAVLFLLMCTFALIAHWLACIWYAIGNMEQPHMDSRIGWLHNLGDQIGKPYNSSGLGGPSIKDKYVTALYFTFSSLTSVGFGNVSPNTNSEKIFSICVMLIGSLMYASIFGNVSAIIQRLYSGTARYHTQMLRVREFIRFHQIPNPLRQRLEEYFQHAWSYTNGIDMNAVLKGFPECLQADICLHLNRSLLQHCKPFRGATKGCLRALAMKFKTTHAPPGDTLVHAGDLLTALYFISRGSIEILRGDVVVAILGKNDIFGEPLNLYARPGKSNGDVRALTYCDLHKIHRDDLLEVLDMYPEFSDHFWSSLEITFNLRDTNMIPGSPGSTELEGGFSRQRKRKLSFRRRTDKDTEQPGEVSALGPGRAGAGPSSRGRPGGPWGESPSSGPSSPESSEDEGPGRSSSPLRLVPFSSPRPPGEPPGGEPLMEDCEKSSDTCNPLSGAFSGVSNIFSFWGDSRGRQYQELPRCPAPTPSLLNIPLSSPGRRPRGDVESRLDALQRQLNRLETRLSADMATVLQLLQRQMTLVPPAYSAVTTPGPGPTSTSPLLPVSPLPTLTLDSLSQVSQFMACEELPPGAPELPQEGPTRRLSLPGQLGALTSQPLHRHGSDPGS

Compound | hERG current change (%, negative = inhibition) at 10uM
COc1cccc2sc(NNC(=O)C3=COCCO3)nc12 | 1.61%
CCC1Oc2ccc(C)cc2N(CC(=O)NCCc2ccc(OC)c(OC)c2)C1=O (centres unmarked) | -14.6%
CCN(CC)S(=O)(=O)c1ccc(N2CCOCC2)c(NC(=S)NC(=O)c2ccco2)c1 | -66.5%
Cc1n[nH]c(=O)nc1NCCc1ccccc1 | 34.4%
Cc1ccccc1-c1nsc(SCC(=O)c2ccc(Cl)cc2)n1 | 7.5%
COc1cc2[nH]c(C(=O)N(C)Cc3ccccc3)cc2c(OC)c1OC | -28.6%
Cc1ccc(NC(=S)N(C)Cc2cn(C)c3ccccc23)cc1 | -4.74%
Cn1c(=O)c2c(C(=O)O)cc(-c3ccccc3)nc2n(Cc2ccccc2)c1=O | 20.5%
O=C(NCc1ccc(Cl)cc1)c1ccncc1 | -1.32%
CCC(C)NC(=O)C1CCN(S(=O)(=O)N2CCC3(CC2)OCCO3)CC1 (centres unmarked) | 37.2%
O=C(Cc1csc(N2CCOCC2)n1)N/N=C/c1cccc(O)c1 | -5.11%
C/C(CC(=O)NCCN1CCOCC1)=N\NC(=O)c1ccncc1 | 14%
Cc1cc(S(=O)(=O)Nc2cccc([N+](=O)[O-])c2)c(C)s1 | 2.03%
CC1CC(C)CN(S(=O)(=O)N2CCC(C(=O)NCCC3=CCCCC3)CC2)C1 (centres unmarked) | 7.18%
COc1ccc(CN(C)C(=O)Cc2ccc(OC)c(S(=O)(=O)N3CCOCC3)c2)cc1OC | -3.41%
C/C(=N\N1CCN(C)CC1)c1ccc(OC(F)F)cc1 | 9.82%
COc1cccc(/C=C/c2ccc3cccc(O)c3n2)c1OC | 21.8%
C=CCN1C(=O)CSC1=Nc1cccc(O)c1 | -4.23%
O=C(OCC(=O)N1CCCC1)c1cc(Br)ccc1Cl | 12.7%
Nc1ccc(O)cc1C(=O)OCC(=O)C12CC3CC(CC(C3)C1)C2 | -5.05%
CCCCCCc1ccc(N2C[C@H](CCCCC)[C@@H](CC(=O)NCc3ccccc3)C2=O)cc1 | -1.8%
COc1ccc(C(=O)NC2CCN(CC(=O)NCc3ccccc3)CC2)cc1 | -24.4%
CCOC(=O)C1CCN(Cc2cc(Cl)c3ccccc3c2O)CC1 | 10.2%

Compound | hERG current change (%, negative = inhibition) at 10uM
Cc1ccc(NC2=NCC(=O)N2C2CCCC2)cc1.Cl | 14.7%
COc1ccc(C(O)(CCC(C)C)C(CN2CCOCC2)c2ccc(Cl)cc2)cc1.Cl (centres unmarked) | 0.459%
Cc1ccc(OCC(=O)Nc2ccncc2)cc1 | 2.13%
CCOc1cc(C(=S)N2CCOCC2)ccc1O | 9.47%
O=C(Nc1ccn(Cc2c(F)c(F)c(F)c(F)c2F)n1)c1ccc(COc2ccccc2Cl)cc1 | 11.7%
CCC(C)c1ccc(O)c(/C=N/O)c1 (centres unmarked) | 12.2%
CC12CC(NC(=O)N1c1cccc(C(=O)N3CCN(c4ccccc4F)CC3)c1)c1ccccc1O2 (centres unmarked) | -6.74%
O=C(CN1C2CCCC1CC(NC(=O)c1ccco1)C2)Nc1ccccc1 (centres unmarked) | -45.2%
Cc1ccc(C(=O)Nc2ncccc2O)cc1S(=O)(=O)N1CCCCC1 | -14.3%
COc1c(C(=O)Nc2ccc(CN3CCOCC3)cc2)cc2ccccc2c1Br | 4.81%
CCC(=O)c1ccc(OCC(=O)Nc2ccccc2C(=O)NC2CC2)cc1 | -6.53%
COc1ccc(CCN(C)C(=O)CSc2nnc(-c3ccco3)o2)cc1OC | -21.3%
CC1Cc2ccccc2N1C(=O)COC(=O)c1ccc(N(C)C)cc1 (centres unmarked) | 13.4%
Cc1cc(NC(=O)C23CC4CC(CC(C4)C2)C3)n[nH]1 | -0.917%
COc1cc(/C=N/n2cnc3scc(-c4cccs4)c3c2=O)cc(OC)c1OC | -9.89%
O=S(=O)(NCC1CCCO1)c1cnc(Cl)c(Cl)c1 (centres unmarked) | -2.72%
CC1CCC2C(=O)N(c3ccc(S(=O)(=O)c4ccccc4)cc3)C(=O)C2C1 (centres unmarked) | 9.01%
Cc1nc(-c2noc(-c3ccc(Cl)cc3)n2)c(C(F)(F)F)o1 | 28.2%
CC(=O)C1=C(NC(=O)c2ccc(C(F)(F)F)cc2)C[C@@H]2[C@H]1C2(C)C | 5.78%
O=C(N/N=C/c1ccccc1F)c1cccc2ccccc12 | 9.79%
COC(=O)c1ccc(S(=O)(=O)N(Cc2ccccc2)Cc2ccccc2)n1C | 10.8%
Cc1cccc(-n2ncc3c(NCCN4CCOCC4)ncnc32)c1 | -28.7%
O=c1[nH]c(=O)n(Cc2ccco2)c(O)c1C=NC1CCN(Cc2ccccc2)CC1 | -59.2%

Compound | hERG current change (%, negative = inhibition) at 10uM
COc1ccc(N(CC(=O)N2CCCCC2)S(=O)(=O)c2c(C)nn(C)c2C)cc1 | 4.36%
COc1ccc(C(=O)/C=C2/C(=O)Nc3ccccc32)cc1OC | 11.1%
COc1ccc2nc(C)cc(SCC(=O)N/N=C/c3cccc4ccccc34)c2c1 | 5.42%
O=C(NNc1nc(-c2ccccc2)cs1)c1ccco1 | -5.46%
COC(=O)CSc1ccc2nnc(CCNS(=O)(=O)c3ccc(C)cc3)n2n1 | 11.9%
C/C(=N\NC(=O)CSc1nc(C)cc(C)n1)c1cccc([N+](=O)[O-])c1 | 19.9%
Cc1cccn2c(=O)c3cc(S(=O)(=O)c4ccc(F)cc4)c(=N)n(Cc4ccco4)c3nc12 | -34.8%
CC(C)(C)C1CCc2c(sc3nc(SCC(N)=O)nc(N)c23)C1 (centres unmarked) | 3.74%
O=C(CC1CCCCC1)NCc1ccc(F)cc1 | 15.2%
Cl.c1ccc2c(c1)CCCc1cc(NCCN3CCOCC3)nnc1-2 | -16.3%
O=C(Nc1ccc(Br)cc1)C1C2C=CC3(O2)C1C(=O)N(CCN1CCOCC1)C3C(=O)NC1CCCCC1 (centres unmarked) | -3.6%
Cc1ccc(C(=O)OCC(=O)NC(=O)Cc2ccccc2)c(O)c1 | 21.9%
CCOc1ccc(C(=O)Nc2nnn(CC)n2)cc1 | 4.01%
CCC(C)(C(=O)NC1CCCC1)N(C(=O)c1cnccn1)c1c(C)n(C)n(-c2ccccc2)c1=O (centres unmarked) | -2.47%
CCOC(=O)c1c(-n2c(C)cc(C=C3C(=O)NC(=O)NC3=O)c2C)sc2c1CCCC2 | 2.5%
O=CNc1ccccc1 | 14.6%
CCOC(=O)CON1C(=O)C(C)(C)N(OCC(=O)OCC)C(=O)C1(C)C | 21.1%
O=C1COc2ccc(C(=O)c3ccccc3)cc2CN1 | -4.36%
CC1(c2ccccc2)CC(c2ccccc2)=Nc2nonc2N1 (centres unmarked) | -20.6%
COc1ccc(-c2noc3c2-c2nc(-c4ccccc4F)sc2CC3)cc1 | -12.8%
CCN1C(=O)N(S(=O)(=O)c2ccc(C)cc2)[C@@H](c2ccccc2)C(C(=O)OC)=C1C | 6.86%
CS(=O)(=O)Nc1cccc(C2=NN(C(=O)c3cccc(F)c3)C(c3cccs3)C2)c1 (centres unmarked) | 3.75%
O=[N+]([O-])c1ccc2c(c1)nc(CO)n2Cc1ccccc1 | 5.82%

Compound | hERG current change (%, negative = inhibition) at 10uM
Cc1nc(C)n(CC(O)COc2ccc3ccccc3c2)n1 (centres unmarked) | -5.58%
O=c1c2ccccc2[nH]c(=S)n1CCCN1CCOCC1 | 8.73%
Cc1ccc(C(=O)NCC(=O)NC2CCCCCC2)cc1 | 8.54%
CC1CC(C)CN(c2nc(N(C)c3ccccc3)nc(N)c2[N+](=O)[O-])C1 (centres unmarked) | -5.52%
COc1ccccc1-n1cnc2cc(NC(C)=O)ccc21 | 15.6%
O=C1CCC(=O)N1CN(C(=O)c1ccco1)c1ccccc1 | 19.4%
COCCn1c(-c2ccc(OC)cc2)nc2ccccc21 | -0.766%
COc1ccc(NC(=O)CSc2nnc(N)n2CC(=O)Nc2ccc(OC)cc2)cc1 | 11.1%
N/C(=N\N=C\c1ccc2c(c1)OCO2)SC1CC(=O)N(c2ccc(C(=O)O)cc2)C1=O (centres unmarked) | 15.1%
O=C(N/N=C/c1ccc(Cl)cc1Cl)c1ccc(-n2cnnn2)cc1 | 9.94%
COc1ccc(S(=O)(=O)N(C)C)cc1NCC(=O)Nc1ccc(F)cc1F | -19.1%
CN(c1ccccc1)S(=O)(=O)c1ccc(C(=O)NCc2cccs2)cc1 | -10.6%
O=C(NCCC(=O)N1CCCC1)c1ccccc1Cl | 22%
CNS(=O)(=O)c1ccc2c(c1)oc(=O)c1cc(S(=O)(=O)NC)ccc12 | 20.1%
O=C(CNC(=O)c1cccc(Br)c1)NCCc1nc2ccccc2[nH]1 | 5.59%
CCC1(CC)NC(=O)N(CC(=O)OCC(=O)Nc2ccccc2[N+](=O)[O-])C1=O | 3%
COc1ccc(S(=O)(=O)N2CCN(c3ccc(F)cc3)CC2)cc1OC | -1.24%
Cc1ccc(/C=N/NC(=O)Cc2cccn2C)cc1 | -1.75%
COc1cc([N+](=O)[O-])ccc1NC(=O)C1CCCN(S(C)(=O)=O)C1 (centres unmarked) | -9.96%
CC(C)CN(C(=O)CCCSc1nc2ccccc2[nH]1)c1c(N)n(Cc2ccccc2)c(=O)[nH]c1=O | -43.2%
